This is one part of the list. At the low end of the ranking the order means little. The protein was read in a cell extract, so binding may be indirect.

The target of this assay is T1, HNF4alpha8 (COS-7 nuclear extract) (UniProt P41235-5).
T1 sequence: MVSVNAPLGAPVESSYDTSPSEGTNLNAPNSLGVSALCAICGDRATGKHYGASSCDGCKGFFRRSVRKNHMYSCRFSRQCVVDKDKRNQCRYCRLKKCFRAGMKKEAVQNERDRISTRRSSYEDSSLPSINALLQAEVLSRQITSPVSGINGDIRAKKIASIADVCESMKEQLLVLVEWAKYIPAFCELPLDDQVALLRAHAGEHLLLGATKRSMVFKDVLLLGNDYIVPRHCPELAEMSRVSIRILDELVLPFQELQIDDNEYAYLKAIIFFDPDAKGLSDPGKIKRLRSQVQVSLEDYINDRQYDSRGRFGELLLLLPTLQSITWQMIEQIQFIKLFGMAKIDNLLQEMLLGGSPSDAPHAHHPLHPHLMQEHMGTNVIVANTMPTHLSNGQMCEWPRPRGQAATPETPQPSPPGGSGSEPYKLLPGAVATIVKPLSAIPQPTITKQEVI
Kind of assay: protein-binding microarray. The conditions noted are these: COS-7 nuclear extract on double-stranded Agilent 4x180k PBM; binding buffer, salt, pH and temperature not given; high values mean tight binding; double strand, one strand shown; sequences stand for … in …GCCTAGGGAGATTAGAGTATCGGTCGA
Turning to TCTTTGCACTTGATGTTCCCCCTCCCTGGA, the binding signal (log2 normalized intensity) stood at 4.84.

Consider ACTTTGGTCTTATTACTAAGTGAGAAAAGA, for which the binding signal (log2 normalized intensity) turned out to be 0.36.

As to CCCCTCCCTCCGCAACCTTTACTCCTTGTG, the binding signal (log2 normalized intensity) is 4.08.

Regarding AATGGCTCCACCAGTCAGTCAGTGAGACGT, the binding signal (log2 normalized intensity) was -1.31.

For the sequence CCTTTTTGGAATGTGTTTGCATGACTCATA, the binding signal (log2 normalized intensity) was determined as 1.5.

As to ATGAAGTCAAACAAAAGAAAATGTGCCCTT, the binding signal (log2 normalized intensity) is 2.86.

Take TGTACCCAGCACTGTCAGCAGGGGGATCCA: the binding signal (log2 normalized intensity) is -1.32.

Consider AGTTTGCCACGGTCAGCAATGTGGACTTTG, for which the binding signal (log2 normalized intensity) is 6.83.

With ATCACACAGACAGACATTCAGAAACTGTCA, the binding signal (log2 normalized intensity) is -1.38.

For ACGCACAGAGGCCCCTGATGTGATGTAATC, the binding signal (log2 normalized intensity) was 0.194.

As to CTTATTTGCATGAAGCACAAAGGTTACTTG, the binding signal (log2 normalized intensity) stood at 3.59.

In the case of CTGTACACTTACAAGTGTACAAAGGTCACT, the binding signal (log2 normalized intensity) is 8.53.

Consider AACTTTATCAAGACTGCAGCCAGGGGCGTA, for which the binding signal (log2 normalized intensity) is -1.34.

On to AAGCATAACTGTATAACCTGGAACTGAAAG, for which the binding signal (log2 normalized intensity) was -1.11.

As to CGCGCAGCCAATAGGCGAGGACGCAGTCCC, the binding signal (log2 normalized intensity) is -1.31.

In the case of AAGGTGTATGTGGACTTTCAACTGCAGGGG, the binding signal (log2 normalized intensity) amounted to 4.4.

Turning to ACTTAGAATTTCATTTTGCTCTTTGTTCAG, the binding signal (log2 normalized intensity) is 3.43.

For TTCCGGATAGCCAAATAGCCTGGTCACTCA, the binding signal (log2 normalized intensity) is -1.36.

As for CTGATGCCCTTTGGATTTAGGCAGTTTTTG, the binding signal (log2 normalized intensity) amounted to 2.92.

On to AAATATTTGGTGAATAAACAAATAATGGCT, for which the binding signal (log2 normalized intensity) is -1.33.

ACCCGGCAGGCGGGAAAGAAGGCTGGTTTA: the binding signal (log2 normalized intensity) was -1.3.

As for CCTCCATTTCACAAATGAGGGGACAAAGTT, the binding signal (log2 normalized intensity) came out at 1.42.

For TGGAATTTGCAAGTGGAGATTTCAGCCGCT, the binding signal (log2 normalized intensity) is -1.42.

In the case of AGGCCCTCGGCATCATGCCCTTTGGCCCCC, the binding signal (log2 normalized intensity) was 7.71.

Take CCTGCAGGTGAAACTCCAGGCTCCAAGGGT: the binding signal (log2 normalized intensity) is -1.34.

In the case of TGTTTCAGAGTAGCCTATCAGAAGAATCTG, the binding signal (log2 normalized intensity) is -1.3.

Regarding CAAACAAAAGGGACAAAGGTGAGTGCAACC, the binding signal (log2 normalized intensity) stood at 2.01.

In the case of ACCTGCTTGTTTTCCCAACAGGTGTTAAAA, the binding signal (log2 normalized intensity) was determined as 0.171.

Turning to GATTACCTAAACAGCAACTGTAGTGCATAG, the binding signal (log2 normalized intensity) is -1.23.

Take TCACTGGTGATGTGAACCTCGATCCCTGGC: the binding signal (log2 normalized intensity) came to 3.71.

For the sequence CATCTGTCATTCCCTCACTCTAGAACCTTC, the binding signal (log2 normalized intensity) worked out at 0.388.

Consider ATGCATGTCCCTCCTCAACCTCTCCAATGC, for which the binding signal (log2 normalized intensity) worked out at 1.1.

Regarding CTGTGAAGACTGCAGCAAAGTCCTCCAACT, the binding signal (log2 normalized intensity) is -1.35.

As for CTCCTGCTATCAGTACTGAAACATGCCTAT, the binding signal (log2 normalized intensity) was 0.0532.

In the case of ACAAAATTAAGTGATTTGCCCAATATAATA, the binding signal (log2 normalized intensity) was -1.27.

In the case of CCCTCTCCCCACCATTAACCCTACAGTCCT, the binding signal (log2 normalized intensity) stood at 3.24.

Regarding TCTCAGGTTGTGTTTGCAGTGAGTAACCTT, the binding signal (log2 normalized intensity) came to 2.32.

Regarding ATCAGCATGGCTGCAGAGAACAGCAGCTAT, the binding signal (log2 normalized intensity) is -1.09.

TAATTGCTTGTTGGTTCAAGAGAAATGTTA: the binding signal (log2 normalized intensity) was determined as 1.58.

For the sequence TGGAATAGATCAGCTTTCAACACTCTGGAT, the binding signal (log2 normalized intensity) was -1.3.

Consider ATCCTAGTCTTTGCCCCACTGCAAGTTGAC, for which the binding signal (log2 normalized intensity) was determined as 2.63.

For AAGGCAAACACTCAAGGTCCAAACAGGGTA, the binding signal (log2 normalized intensity) was 0.664.

Regarding GACAGCTGGGCCCTGCCTGACCTGCCCTTT, the binding signal (log2 normalized intensity) amounted to 5.01.

AGCCTCACTTGCTGATAAGGCAGACCAGGG: the binding signal (log2 normalized intensity) was -1.3.

As to CCAAATCTAGCATCAGTGAGTCAAGAGATA, the binding signal (log2 normalized intensity) is -1.2.

Consider TCAAGATTTTACCTACTTCCTTTATTCACT, for which the binding signal (log2 normalized intensity) is -1.3.

On to TATTAGGCATTTCATTTGCCCAGCTGTTCC, for which the binding signal (log2 normalized intensity) was determined as 0.945.

Regarding TGGCCACTCCCTGATAGAGAACAAGGTTCC, the binding signal (log2 normalized intensity) is -1.17.

As to ACAGATAGCATAATCAAAGAGAAAAACATT, the binding signal (log2 normalized intensity) is -1.38.

Turning to TTTTGCAACATGAGGAGCCAAGTTTTGCAA, the binding signal (log2 normalized intensity) is -1.38.

CGAGCGCTGCTTCTCGTCCCCGCCCGAGCC: the binding signal (log2 normalized intensity) worked out at 3.3.

Take TCCCAATCTCTGTGGGAGGGAAGGAGCCTA: the binding signal (log2 normalized intensity) was -1.3.

Regarding ACCCAGGTGTGTTGCAACTTTGACTATAGC, the binding signal (log2 normalized intensity) was found to be 0.342.

Take GGGCTTCAGGGTAAATCCCGTCCCTGCCAA: the binding signal (log2 normalized intensity) is 0.541.

Take CCACAGATGATCAAAGGTCAGTCTTAGGAC: the binding signal (log2 normalized intensity) was found to be 5.58.

Consider CCGCGGCGGGCCCTCGACCTTTGCCCTCCA, for which the binding signal (log2 normalized intensity) worked out at 9.76.

Turning to ACGCCAGCAGCAGGGTCAGAAGGGAGGTAG, the binding signal (log2 normalized intensity) was -1.34.

Take TATTTCACCCCAGCAAACAGGTCCTGCTGG: the binding signal (log2 normalized intensity) was -1.22.

On to TCAATTATCACCACACAGCACGTAATAGTT, for which the binding signal (log2 normalized intensity) is -0.1.

In the case of AACAGCACAAGCAATGGCTGGGTCTAAGGG, the binding signal (log2 normalized intensity) was -0.936.

In the case of ATTTCTGAGAGAGAAAGAGACAGAGAGAGA, the binding signal (log2 normalized intensity) is -1.41.

As to GCAAAGATCACCTGGTGGCCATCAAGCAGA, the binding signal (log2 normalized intensity) is -1.36.

Take GACCTTCGGCCTCAATTATAACTCATGTTC: the binding signal (log2 normalized intensity) was found to be 3.98.

Regarding TGGACTTTCAACTGCAGGGGGGTGGGCACC, the binding signal (log2 normalized intensity) turned out to be 2.19.

For AATCTGGCTGCAGAGTCCAAGATGCTGTCT, the binding signal (log2 normalized intensity) was found to be 1.82.

Turning to AGAGCAAAGGTTACTGCAGAGAAGAAGCTT, the binding signal (log2 normalized intensity) worked out at 1.46.

Take TCTTGCTTCGCTCTCTTCTGGTGATCAAAC: the binding signal (log2 normalized intensity) was -0.074.

GCTGGGTATACTGACTAGGACAGAGCAGAT: the binding signal (log2 normalized intensity) was -1.02.

On to GGGTAGGCAGACAGGTTGGAGACGCAGAGA, for which the binding signal (log2 normalized intensity) is -1.22.

Take CGAGCTGAGGCCAGACAGGGGGGCGCCTAC: the binding signal (log2 normalized intensity) is -1.25.

GTCAGGGCTAGGCTGATAAGGAGGGTAACA: the binding signal (log2 normalized intensity) was -1.32.

On to ACTTCAGCCTTTGAGAAGCAGGAGCATGGG, for which the binding signal (log2 normalized intensity) is -1.36.

As to GTCTCTGCTCCTAAAATTATGCCATTCTTT, the binding signal (log2 normalized intensity) was -0.139.

For GAAGTCCAGTAGCTCAATCAAGGTTCACTG, the binding signal (log2 normalized intensity) was found to be 2.02.

For GAGTTATTTCATAGACTGTCCCTCAGTGTG, the binding signal (log2 normalized intensity) was 1.89.

As for ACAGAGGCAGTGGGACAATGAAGCCTAAAT, the binding signal (log2 normalized intensity) was -1.27.

As to TCTTTCCACTTGGGCTTCCTCATCTGTTTA, the binding signal (log2 normalized intensity) stood at 1.27.

Take GGAATGCAGTGGCGCAATCTCAGCTCAATC: the binding signal (log2 normalized intensity) was -1.36.

CCCTTTTTCTGTAAAGCTTTATTTTGGGGC: the binding signal (log2 normalized intensity) was found to be 1.31.

Consider AGATTGCCACCTTGGTGAGAGATTAAACAT, for which the binding signal (log2 normalized intensity) was -0.649.

Turning to AAGGAGGCAGTAAGATAAGGAGGTAGAGTC, the binding signal (log2 normalized intensity) was -1.33.

With GCCACTGAACTTTCACTGCCTATCTCCTAT, the binding signal (log2 normalized intensity) came out at 0.18.

On to CCTGACATTCTTGAGCTGCTAAACCAACAC, for which the binding signal (log2 normalized intensity) was -1.17.

Regarding AGCATATTTGGCCACATCCTGTCTCCTTTA, the binding signal (log2 normalized intensity) worked out at 1.11.

As for CCCTGTTTAGAATTCTGCCTCCCCCACCCC, the binding signal (log2 normalized intensity) came to 6.24.

As to TCCCAGATGCTGACCATATTCCAAATTCCA, the binding signal (log2 normalized intensity) was 0.564.

On to CAAACCGAGATCAAGGGACAGAGATAACTG, for which the binding signal (log2 normalized intensity) is -1.36.

In the case of GTGGCCTTTGTCCTAGTGCATGCTGGGAGT, the binding signal (log2 normalized intensity) was found to be 1.55.

On to GAATCTGGACAGTGTAAGATAAAAATCAGA, for which the binding signal (log2 normalized intensity) is -1.33.

With CCAAGCAGTGATATTCTCTCGTCACCTCCA, the binding signal (log2 normalized intensity) is -1.39.

Regarding CTCCACTGGGAATGACATTTTGGACTACTT, the binding signal (log2 normalized intensity) is 2.

For the sequence CATTCAGATAAATGGTGTAGAGGCCAGAGG, the binding signal (log2 normalized intensity) is -0.495.

For the sequence TTCCCTCCCTCCCAGTACAAAGTTCACTTT, the binding signal (log2 normalized intensity) amounted to 7.26.

The values are drawn from paper PMC10726135.
